Data on 17 molecules can be found in PubChem BioAssay AID1347044 (National Center for Advancing Translational Sciences (NCATS), 2019).

The list shows a part of the results. Shown are side measurements of this screen, not its main read-out; they come without a call. Most of these compounds were active or inconclusive in the main read-out, so they are no random draw. Potencies come from curve fits of mixed quality, noted in brackets.

What is called CC50 is the concentration giving 50% cytotoxicity. Low readings indicate harm at low concentration, high ones better tolerance by the cells.
Tags give direction and shape of the fitted curve.

The experiment is described as follows: Natriuretic polypeptide receptor (hNpr1) antagonism - Confirmation. Note: nearly all actives have a fitted effect of over 70% in size. The settings on record: HEK293 hNpr1 cGMP GloSensor luminescence, ANP-stimulated; measured here: HEK-hNpr1 cytotoxicity, CellTiter-Glo. In short, it runs like this:
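Compound (30 min, room temperature) preceded stimulation with hNppA peptide at 0.1 nM final for 20 min. Cells were HEK293 carrying hNpr1 plus GloSensor pGS-40F cGMP biosensor, pre-equilibrated 2 h with 2% substrate; cGMP was followed as luminescence pre- and post-agonist.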
(In general: Cellular ATP, detected with luciferase, serves as a proxy for viable cell number.)
With `CCn1c2c(c(=O)n1-c1ccccc1)CCN(C(=O)c1ccc(Oc3ccccc3)cc1)C2`, the CC50 was 13.7 µM [falling, partial curve].

For `COc1ccc(-c2noc(CC3CCN(C(=O)c4cc(F)ccc4Cl)CC3)n2)cc1`, the CC50 is 15.3 µM [falling, partial curve]. On to `Cc1nn(C)c2nc(N3CCC(C#N)(c4ccccc4)CC3)sc12`, for which the CC50 is 21.7 µM [falling, partial curve]. As to `COc1ccc(-c2noc(CC3CCN(C(=O)c4ccc(OC)cc4OC)CC3)n2)cc1`, the CC50 was 4.85 µM [falling, full curve]. Consider `COc1cccc(C(=O)N2CCN(c3cc(-c4ccc(Cl)cc4)[nH]n3)CC2)c1OC`, for which the CC50 is 15.3 µM [falling, partial curve].

For the molecule `O=C(C1CC(=O)N(c2n[nH]c3ccccc23)C1)N1CCC(c2noc3cc(F)ccc23)CC1` (configuration not stated), the CC50 is 24.3 µM [falling, partial curve]. `Cc1ccc2c(c1)nc1n2[C@@H](CNS(=O)(=O)Cc2ccccc2)COC1`: the CC50 was 31.4 µM [falling, partial curve]. In the case of `COc1ccccc1-c1ncc(CNc2cc(C3CC(O)C3)ncn2)s1` (configuration not stated) it was 10.9 µM [falling, partial curve].

With `CCn1cc(CNC(=O)c2ccc(OC3CCN(S(=O)(=O)N(C)C)CC3)cc2)cn1`, the CC50 was 17.2 µM [falling, partial curve]. In the case of `O=C(Nc1ccccc1)O[C@@H]1CO[C@H]2[C@@H]1OC[C@@H]2NC(=O)c1ccc2c(c1)OCO2`, the CC50 was 49.8 µM [falling, single point]. The value for `CCOC(=O)c1ccc(CNC(=O)N2CCC3(CC2)CN(c2ccccc2)C3=O)cc1` was 21.7 µM [falling, partial curve, poor fit]; that for `COc1ccc(CC(=O)N2CCC(Cc3nc(-c4ccccc4)no3)CC2)cc1OC` was 12.2 µM [falling, partial curve].

Turning to `COc1ccc(CC(=O)N2CCC(Cc3nc(-c4ccccc4)no3)CC2)cc1Cl`, the CC50 was 34.3 µM [falling, single point]. On to `Cc1noc(-c2ccco2)c1C(=O)NCc1cccc2ccccc12`, for which the CC50 was 21.7 µM [falling, partial curve].

On to `COc1cccc(CC(=O)N2CCN(C(=O)c3nnn4c3COC(c3ccc(Cl)cc3)C4)CC2)c1` (configuration not stated), for which the CC50 was 21.7 µM [falling, partial curve].

On to `O=C(c1ccc(Cl)cc1)N1CCC(n2cc(-c3nc(-c4ccccc4)no3)nn2)CC1`, for which the CC50 is 24.3 µM [falling, partial curve]. In the case of `COc1cc(OC)cc(C(=O)N2CCC(Cc3nc(-c4ccc(F)cc4)no3)CC2)c1`, the CC50 was 19.3 µM [falling, partial curve].
